The values below come from the BET-seq Pho4 binding data (Le et al. 2018).

The other results are listed elsewhere or left out. Values were computed here from the reads of four pooled replicates and scatter widely.

For this assay, the target named is T1, Pho4 (S. cerevisiae) (UniProt P07270).
T1 sequence: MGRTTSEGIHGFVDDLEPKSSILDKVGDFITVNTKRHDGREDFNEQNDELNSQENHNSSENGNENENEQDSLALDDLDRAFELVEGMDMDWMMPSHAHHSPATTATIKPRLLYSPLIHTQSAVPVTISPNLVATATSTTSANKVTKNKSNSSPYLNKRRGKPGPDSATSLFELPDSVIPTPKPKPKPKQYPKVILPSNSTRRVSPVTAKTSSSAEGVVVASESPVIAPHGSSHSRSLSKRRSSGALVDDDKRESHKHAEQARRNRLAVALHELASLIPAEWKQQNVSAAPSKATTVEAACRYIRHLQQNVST
The assay can be described thus: relative binding free energy (BET-seq); higher = weaker binding. The conditions noted are these: reference: library average.
On to TGGGTCACGTGTCCAG, for which the “relative binding free energy” value is 0.06 kcal/mol.
For TGGTACACGTGAGTTA, the “relative binding free energy” value worked out at 0.3 kcal/mol.
The value for CTGCTCACGTGGGAGG was 0.15 kcal/mol; that for AGCGGCACGTGTAAGT was 0.04 kcal/mol.
The value for GGCGCCACGTGGCGGG was -0.2 kcal/mol; that for TGAGGCACGTGTTTCG was -0.09 kcal/mol.
As to TGGATCACGTGTGGCC, the “relative binding free energy” value was found to be 0.32 kcal/mol.
With TACTTCACGTGATAGT, the “relative binding free energy” value is 0.25 kcal/mol.
Regarding TTTTTCACGTGCGTGC, the “relative binding free energy” value worked out at 0.25 kcal/mol.
The value for GGCTTCACGTGGTTAT was 0.18 kcal/mol; that for GGGGACACGTGATGGA was 0.27 kcal/mol; that for TGAAACACGTGGTGGC was -0.03 kcal/mol.
Turning to GTGAGCACGTGGCGTA, the “relative binding free energy” value was -0.29 kcal/mol.
The value for GATGGCACGTGTGTAA was -0.1 kcal/mol.
GTGATCACGTGGCGGG: the “relative binding free energy” value came to 0.06 kcal/mol.
For GGTGCCACGTGTTATG, the “relative binding free energy” value is -0.18 kcal/mol.
In the case of TCTGGCACGTGGTTGA, the “relative binding free energy” value is -0.19 kcal/mol.
As to CATGGCACGTGTTAAG, the “relative binding free energy” value was -0.05 kcal/mol.
As to GGTTCCACGTGGGGGA, the “relative binding free energy” value was -0.06 kcal/mol.
As to TGGTTCACGTGTCAGA, the “relative binding free energy” value is 0.3 kcal/mol.
TGGAACACGTGATGGT: the “relative binding free energy” value came to 0.11 kcal/mol.
Consider GGACTCACGTGTGTTA, for which the “relative binding free energy” value was 0.25 kcal/mol.
GTGTTCACGTGCAGAT: the “relative binding free energy” value is 0.22 kcal/mol.
For the sequence GAAGGCACGTGGAGGG, the “relative binding free energy” value was -0.07 kcal/mol.
On to CAGGTCACGTGATGTT, for which the “relative binding free energy” value was determined as 0.23 kcal/mol.
As for TTTAGCACGTGTTGAC, the “relative binding free energy” value was -0.1 kcal/mol.
Take ATTAACACGTGTAGGC: the “relative binding free energy” value is -0.01 kcal/mol.
As to TATGACACGTGTTAAT, the “relative binding free energy” value was 0.02 kcal/mol.
Regarding AGGCACACGTGGGAGT, the “relative binding free energy” value is -0.13 kcal/mol.
The value for GCTGTCACGTGAGTTA was 0.23 kcal/mol.
TGAATCACGTGGTGTC: the “relative binding free energy” value stood at 0.15 kcal/mol.
The result for TTCAGCACGTGGTCTT reads -0.12 kcal/mol.
Regarding GGATCCACGTGATAGT, the “relative binding free energy” value is 0.35 kcal/mol.
On to ATGGACACGTGTACGT, for which the “relative binding free energy” value was 0.03 kcal/mol.
For the sequence TTCACCACGTGTTGGG, the “relative binding free energy” value was 0.14 kcal/mol.
The result for TGTCGCACGTGGAGGG reads -0.15 kcal/mol; that for GAGATCACGTGGGGGT, 0.13 kcal/mol.
As for GTAAGCACGTGGTACA, the “relative binding free energy” value was found to be 0.07 kcal/mol.
Turning to GTTTGCACGTGATGTC, the “relative binding free energy” value came to 0.08 kcal/mol.
As to TACGACACGTGTTGTG, the “relative binding free energy” value was determined as 0.06 kcal/mol.
As to AGAGTCACGTGTGCTG, the “relative binding free energy” value was 0.06 kcal/mol.
The result for ATTTGCACGTGAGGCT reads 0.08 kcal/mol; that for TATTGCACGTGCTAGG, 0.02 kcal/mol.
Consider GGCGTCACGTGCGATG, for which the “relative binding free energy” value was determined as 0.16 kcal/mol.
For the sequence GGTGTCACGTGCGCAT, the “relative binding free energy” value amounted to 0.04 kcal/mol.
Consider TATATCACGTGTGTTA, for which the “relative binding free energy” value is 0.13 kcal/mol.
With GGGCTCACGTGCGTTG, the “relative binding free energy” value came out at 0.3 kcal/mol.
On to CTTTTCACGTGTACGT, for which the “relative binding free energy” value amounted to 0.27 kcal/mol.
Consider ATGGTCACGTGTGGTC, for which the “relative binding free energy” value stood at 0.17 kcal/mol.
Turning to GAATGCACGTGGTAGT, the “relative binding free energy” value is -0.03 kcal/mol.
Take TTGAACACGTGAGGGG: the “relative binding free energy” value amounted to 0.32 kcal/mol.
For the sequence TCTATCACGTGCTTGT, the “relative binding free energy” value is 0.16 kcal/mol.
On to GGGGCCACGTGTGTAT, for which the “relative binding free energy” value was -0.05 kcal/mol.
Consider CTAGGCACGTGGAGCT, for which the “relative binding free energy” value is -0.04 kcal/mol.
As for GGGTTCACGTGGGTCT, the “relative binding free energy” value worked out at 0.3 kcal/mol.
TGATACACGTGGTCGG: the “relative binding free energy” value was determined as 0.12 kcal/mol.
Take AAGTACACGTGTGTAT: the “relative binding free energy” value is 0.24 kcal/mol.
With GTAGGCACGTGTATGG, the “relative binding free energy” value was -0.06 kcal/mol.
The result for ATACGCACGTGAAGGG reads 0.24 kcal/mol.
As for ATTGACACGTGTTTTT, the “relative binding free energy” value amounted to 0.17 kcal/mol.
With GATAGCACGTGGTCGG, the “relative binding free energy” value was -0.14 kcal/mol.
Take TATTACACGTGGTTTT: the “relative binding free energy” value worked out at 0.01 kcal/mol.
Consider ATCATCACGTGTTGTA, for which the “relative binding free energy” value came to 0.13 kcal/mol.
As to GATGTCACGTGTAGGT, the “relative binding free energy” value worked out at 0.17 kcal/mol.
On to AGGTTCACGTGGGGTC, for which the “relative binding free energy” value was determined as 0.31 kcal/mol.
Regarding CGCGGCACGTGGTGTA, the “relative binding free energy” value is -0.21 kcal/mol.
As for AAGGGCACGTGTCGTT, the “relative binding free energy” value was -0.01 kcal/mol.
For GTATGCACGTGTAGGC, the “relative binding free energy” value worked out at 0.14 kcal/mol.
Consider GAGAGCACGTGAATGG, for which the “relative binding free energy” value was determined as 0.23 kcal/mol.
Regarding GGTGGCACGTGGTTGA, the “relative binding free energy” value was -0.11 kcal/mol.
The result for TGTAACACGTGATTAT reads 0.19 kcal/mol.
Consider ATATACACGTGAATTG, for which the “relative binding free energy” value worked out at 0.29 kcal/mol.
ATGTTCACGTGTCTTA: the “relative binding free energy” value was found to be 0.26 kcal/mol.
The value for TTTGACACGTGATTTC was 0.11 kcal/mol; that for CAGGGCACGTGTATTG was -0.05 kcal/mol; that for ATAAGCACGTGTGGTA was -0.04 kcal/mol.
With TTTCGCACGTGTAATG, the “relative binding free energy” value was found to be 0.14 kcal/mol.
The result for GTGTCCACGTGATAGT reads 0.19 kcal/mol; that for CAAGGCACGTGTGAGG, -0.08 kcal/mol.
As for GGGGGCACGTGGTCAC, the “relative binding free energy” value is -0.09 kcal/mol.
With AAGGGCACGTGTTCAG, the “relative binding free energy” value is -0.1 kcal/mol.
Take TTCTTCACGTGATTGG: the “relative binding free energy” value worked out at 0.31 kcal/mol.
As for ATGGGCACGTGAGGGA, the “relative binding free energy” value came out at 0.18 kcal/mol.
Take AATGGCACGTGGGTAG: the “relative binding free energy” value is -0.16 kcal/mol.
The result for GTGGGCACGTGTTTAG reads 0.02 kcal/mol; that for GAGAGCACGTGGGATT, -0.13 kcal/mol.
CAGGGCACGTGTCAGG: the “relative binding free energy” value was -0.05 kcal/mol.
Turning to GGCGTCACGTGATGAT, the “relative binding free energy” value is 0.3 kcal/mol.
Consider GATTTCACGTGGGTCG, for which the “relative binding free energy” value was 0.25 kcal/mol.
The result for TGGGACACGTGATTGT reads 0.22 kcal/mol; that for AAGGGCACGTGTGTAT, -0.15 kcal/mol.
For TGTGCCACGTGCGAGT, the “relative binding free energy” value is -0.06 kcal/mol.
Turning to TGTGGCACGTGACTAG, the “relative binding free energy” value was 0.01 kcal/mol.
The result for AGGGTCACGTGTACTG reads 0.19 kcal/mol; that for ATCTGCACGTGAGGTA, 0.16 kcal/mol.
As to CAATACACGTGAGGTG, the “relative binding free energy” value was determined as 0.34 kcal/mol.
Take TCTAGCACGTGGCGTT: the “relative binding free energy” value was -0.07 kcal/mol.
On to TGTCTCACGTGTATGA, for which the “relative binding free energy” value came to 0.07 kcal/mol.
The value for GCCGTCACGTGGGAGG was 0.07 kcal/mol; that for TGGGGCACGTGTTTTC was -0.02 kcal/mol; that for TTGGTCACGTGGATAC was 0.1 kcal/mol.
On to GACATCACGTGGGGGT, for which the “relative binding free energy” value came out at 0.1 kcal/mol.
On to TAGATCACGTGTTTCT, for which the “relative binding free energy” value stood at 0.18 kcal/mol.
For the sequence GCTGGCACGTGTGTTT, the “relative binding free energy” value is -0.02 kcal/mol.
For CAGGACACGTGGGTGA, the “relative binding free energy” value is -0.05 kcal/mol.
Turning to TTTAACACGTGGAGGG, the “relative binding free energy” value came out at 0.1 kcal/mol.
Take AATCACACGTGTTAGG: the “relative binding free energy” value amounted to 0.19 kcal/mol.
For the sequence GGCTGCACGTGATGAT, the “relative binding free energy” value is 0.24 kcal/mol.
The value for GGCGTCACGTGGTGAC was 0.1 kcal/mol; that for CGGATCACGTGTGTGA was 0.18 kcal/mol; that for GATGACACGTGGTAGG was -0.02 kcal/mol.
Take GCTATCACGTGTCGTT: the “relative binding free energy” value amounted to 0.32 kcal/mol.
For TTTGGCACGTGCAGTG, the “relative binding free energy” value is -0.1 kcal/mol.
Consider CAGGACACGTGTGTGT, for which the “relative binding free energy” value was 0.08 kcal/mol.
Consider AGTTGCACGTGTAAGT, for which the “relative binding free energy” value is 0.12 kcal/mol.
